According to patent publication US5391540A, “Substituted pyridine compounds” (Rohm and Haas Company, priority 1993, dated 1995):
At least one read-out could not be matched to a standard name with certainty. Some ranges recur; such a range may be that of the whole group of compounds.

Tests used:
Test in all cases: Post-emergence herbicidal activity (Table C)
Type in all cases: in vivo
Barnyardgrass = settings: Bygr, 11.2 kg/ha, 10-14 days
Common Lambsquarters = settings: Colq, 11.2 kg/ha, 10-14 days
Velvetleaf = settings: Vele, 11.2 kg/ha, 10-14 days
Downy Brome = settings: Dobr, 11.2 kg/ha, 10-14 days
Canada thistle = settings: Cath, 11.2 kg/ha, 10-14 days
Rhizome Johnsongrass = settings: Rhjg, 11.2 kg/ha, 10-14 days
Morningglory = settings: Mogl, 11.2 kg/ha, 10-14 days
Cocklebur = settings: Cobu, 11.2 kg/ha, 10-14 days
Pennsylvania Smartweed = settings: Pesw, 11.2 kg/ha, 10-14 days
Quackgrass = settings: Rhqg, 11.2 kg/ha, 10-14 days
Yellow Nutsedge = settings: Yens, 11.2 kg/ha, 10-14 days

| SMILES | post-emergent herbicidal activity index (Barnyardgrass) | post-emergent herbicidal activity index (Common Lambsquarters) | post-emergent herbicidal activity index (Velvetleaf) | post-emergent herbicidal activity index (Downy Brome) | post-emergent herbicidal activity index (Canada thistle) | post-emergent herbicidal activity index (Rhizome Johnsongrass) | post-emergent herbicidal activity index (Morningglory) | post-emergent herbicidal activity index (Cocklebur) | post-emergent herbicidal activity index (Pennsylvania Smartweed) | post-emergent herbicidal activity index (Quackgrass) | post-emergent herbicidal activity index (Yellow Nutsedge) |
| --- | --- | --- | --- | --- | --- | --- | --- | --- | --- | --- | --- |
| COc1nc(C(F)(F)F)c(C(=O)n2cccn2)c(C2CCC2)c1C(=O)n1cccn1 [Compound 59, 4-cyclobuty1-2-methoxy-3,5-bis(1H-pyrazo1-1-ylcarbonyl)-6-(trifluoromethyl)-pyridine] | 0 (0-24% inhibition) | 0 (0-24% inhibition) | 0 (0-24% inhibition) | 0 (0-24% inhibition) | 0 (0-24% inhibition) | 0 (0-24% inhibition) | 0 (0-24% inhibition) | 0 (0-24% inhibition) | 0 (0-24% inhibition) | 0 (0-24% inhibition) | 0 (0-24% inhibition) |
| COC(=O)c1c(OC)nc(C(F)(F)F)c(C=O)c1CC(C)C [Compound 79, 3-pyridinecarboxylic acid, 5-formy1-2-methoxy-4-(2-methylpropyl)-6-(trifluoromethyl)-, methyl ester] | 0 (0-24% inhibition) | 1 (25-49% inhibition) | 0 (0-24% inhibition) | 0 (0-24% inhibition) | 0 (0-24% inhibition) | 0 (0-24% inhibition) | 0 (0-24% inhibition) | 0 (0-24% inhibition) | 0 (0-24% inhibition) | 0 (0-24% inhibition) | 0 (0-24% inhibition) |
| CN=C(SC)c1c(C(F)(F)F)nc(OC)c(C(=O)OC)c1CC(C)C [Compound 41, 3-pyridinecarboxylic acid, 2-methoxy-5-[(methylimino)(methylthio)methyl]-4-(2-methylpropyl)-6-(trifluoromethyl)-, methyl ester] | 0 (0-24% inhibition) | 2 (50-74% inhibition) | 0 (0-24% inhibition) | 0 (0-24% inhibition) | 0 (0-24% inhibition) | 0 (0-24% inhibition) | 0 (0-24% inhibition) | 0 (0-24% inhibition) | 0 (0-24% inhibition) | 0 (0-24% inhibition) | 0 (0-24% inhibition) |
| COC(=O)c1c(OC)nc(C(F)(F)F)c(C(=O)OC)c1CC(C)C [Compound 2, 3,5-pyridinedicarboxylic acid, 2-methoxy-4-(2-methylpropyl)-6-(trifluoromethyl)-, dimethyl ester] | 0 (0-24% inhibition) | 1 (25-49% inhibition) | 0 (0-24% inhibition) | 0 (0-24% inhibition) | 0 (0-24% inhibition) | 0 (0-24% inhibition) | 1 (25-49% inhibition) | 0 (0-24% inhibition) | 1 (25-49% inhibition) | 0 (0-24% inhibition) | 0 (0-24% inhibition) |
| COC(=O)c1c(OC)nc(C(F)F)c(C(=O)OC)c1CC(C)C [Compound 31, 3,5-pyridinedicarboxylic acid, 2-(difluoromethyl)-6-methoxy-4-(2-methylpropyl)-, dimethyl ester] | 0 (0-24% inhibition) | 0 (0-24% inhibition) | 0 (0-24% inhibition) | 0 (0-24% inhibition) | 1 (25-49% inhibition) | 0 (0-24% inhibition) | 0 (0-24% inhibition) | 0 (0-24% inhibition) | 0 (0-24% inhibition) | 0 (0-24% inhibition) | 0 (0-24% inhibition) |
| CCOC(=O)C1=C(C(F)(F)F)NC(=O)C(C(N)=O)C1CC(C)C (centres unmarked) [Compound 35, 3-pyridinecarboxylic acid, 5-(aminocarbonyl)-1,4,5,6-tetrahydro-4-(2-methylpropyl)-6-oxo-2-(trifluoromethyl)-, ethyl ester] | 0 (0-24% inhibition) | 0 (0-24% inhibition) | 0 (0-24% inhibition) | 0 (0-24% inhibition) | 0 (0-24% inhibition) | 0 (0-24% inhibition) | 0 (0-24% inhibition) | 0 (0-24% inhibition) | 0 (0-24% inhibition) | 0 (0-24% inhibition) | 0 (0-24% inhibition) |
| COC(=O)c1c(OC)nc(C(F)(F)F)c(C(=O)N2CC2C)c1CC(C)C (centres unmarked) [Compound 72] | 0 (0-24% inhibition) | 0 (0-24% inhibition) | 1 (25-49% inhibition) | 0 (0-24% inhibition) | 0 (0-24% inhibition) | 0 (0-24% inhibition) | 1 (25-49% inhibition) | 0 (0-24% inhibition) | 0 (0-24% inhibition) | 0 (0-24% inhibition) | 0 (0-24% inhibition) |
| COC(=O)c1c(OC)nc(C(F)(F)F)c(C(=O)N2CCCCC2)c1CC(C)C [Compound 67, 3-pyridinecarboxylic acid, 2-methoxy-4-(2-methylpropyl)-5-(1-piperidinylcarbonyl)-6-(trifluoromethyl)-, methyl ester] | 0 (0-24% inhibition) | 0 (0-24% inhibition) | 0 (0-24% inhibition) | 0 (0-24% inhibition) | 0 (0-24% inhibition) | 0 (0-24% inhibition) | 0 (0-24% inhibition) | 0 (0-24% inhibition) | 0 (0-24% inhibition) | 0 (0-24% inhibition) | 0 (0-24% inhibition) |
| COC(=O)c1c(OC)nc(C(F)(F)F)c(C(=O)n2cccn2)c1CC(C)C [Compound 42, 3-pyridinecarboxylic acid, 2-methoxy-4-(2-methylpropyl)-5-(1H-pyrazo1-1-ylcarbonyl)-6-(trifluoromethyl)-, methyl ester] | 1 (25-49% inhibition) | 0 (0-24% inhibition) | 0 (0-24% inhibition) | 0 (0-24% inhibition) | 0 (0-24% inhibition) | 0 (0-24% inhibition) | 0 (0-24% inhibition) | 0 (0-24% inhibition) | 0 (0-24% inhibition) | 0 (0-24% inhibition) | 0 (0-24% inhibition) |
| COC(=O)c1c(OC)nc(C(F)(F)F)c(C(=O)N2CCC2)c1CC(C)C [Compound 68, 3-pyridinecarboxylic acid, 5-(1-azetidinylcarbonyl)-2-methoxy-4-(2-methylpropyl)-6-(trifluoromethyl)-, methyl ester] | 0 (0-24% inhibition) | 0 (0-24% inhibition) | 0 (0-24% inhibition) | 0 (0-24% inhibition) | 0 (0-24% inhibition) | 0 (0-24% inhibition) | 0 (0-24% inhibition) | 0 (0-24% inhibition) | 0 (0-24% inhibition) | 0 (0-24% inhibition) | 0 (0-24% inhibition) |
